# Test results: the supplement of paper PMC8728848
# The list shows a part of the results.
# B1: FBG4 (Homo sapiens), Q96EF6 (protein)
# chain: MGARLSRRRLPADPSLALDALPPELLVQVLSHVPPRSLVTRCRPVCRAWRDIVDGPTVWLLQLARDRSAEGRALYAVAQRCLPSNEDKEEFPLCALARYCLRAPFGRNLIFNSCGEQGFRGWEVEHGGNGWAIEKNLTPVPGAPSQTCFVTSFEWCSKRQLVDLVMEGVWQELLDSAQIEICVADWWGARENCGCVYQLRVRLLDVYEKEVVKFSASPDPVLQWTERGCRQVSHVFTNFGKGIRYVSFEQYGRDVSSWVGHYGALVTHSSVRVRIRLS
# Experiments:
# Test in all cases: glycan array binding signal (z-score within array); higher = stronger binding
# Settings in all cases: glycan notation: IUPAC condensed, linker removed
# [1] = biological target: Neu5Ac(a2-3)Gal(b1-3)[Neu5Ac(a2-6)]GalNAc
# How it was run: (§1)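 Negative Z-scores can be read as non-binding. The Z-score is calculated within each array and then averaged across arrays of one protein sequence at different concentrations or buffers and across linkers. Arrays, 3228 in all, were curated from the Consortium for Functional Glycomics database and kept only where the protein sequence was available.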
# [2] = biological target: Neu5Ac(a2-3)Gal(b1-4)Glc
# How it was run: as §1
# [3] = biological target: Neu5Ac(a2-3)Gal(b1-4)GlcNAc
# How it was run: as §1
# [4] = biological target: Neu5Ac(a2-3)Gal(b1-4)GlcNAc(b1-3)Gal(b1-3)GlcNAc
# How it was run: as §1
# [5] = biological target: Neu5Ac(a2-3)Gal(b1-4)GlcNAc(b1-3)Gal(b1-4)GlcNAc
# How it was run: as §1
# [6] = biological target: Neu5Ac(a2-3)Gal(b1-4)GlcNAc(b1-3)Gal(b1-4)GlcNAc(b1-3)Gal(b1-4)GlcNAc
# How it was run: as §1
# [7] = biological target: Neu5Ac(a2-3)Gal(b1-4)GlcNAc(b1-3)Gal(b1-4)[Fuc(a1-3)]GlcNAc
# How it was run: as §1
# [8] = biological target: Neu5Ac(a2-3)Gal(b1-4)GlcNAc(b1-6)[Gal(b1-3)]GalNAc
# How it was run: as §1
# [9] = biological target: Neu5Ac(a2-3)Gal(b1-4)GlcNAc6S
# How it was run: as §1
# [10] = biological target: Neu5Ac(a2-3)Gal(b1-4)[Fuc(a1-3)]GlcNAc
# How it was run: as §1
# [11] = biological target: Neu5Ac(a2-3)Gal(b1-4)[Fuc(a1-3)]GlcNAc(b1-3)Gal
# How it was run: as §1
# [12] = biological target: Neu5Ac(a2-3)Gal(b1-4)[Fuc(a1-3)]GlcNAc(b1-3)Gal(b1-4)GlcNAc
# How it was run: as §1
# [13] = biological target: Neu5Ac(a2-3)Gal(b1-4)[Fuc(a1-3)]GlcNAc(b1-3)Gal(b1-4)[Fuc(a1-3)]GlcNAc(b1-3)Gal(b1-4)[Fuc(a1-3)]GlcNAc
# How it was run: as §1
# [14] = biological target: Neu5Ac(a2-3)Gal(b1-4)[Fuc(a1-3)]GlcNAc6S
# How it was run: as §1
# [15] = biological target: Neu5Ac(a2-3)Gal6S(b1-4)GlcNAc
# How it was run: as §1
# [16] = biological target: Neu5Ac(a2-3)Gal6S(b1-4)[Fuc(a1-3)]GlcNAc
# How it was run: as §1
# [17] = biological target: Neu5Ac(a2-3)GalNAc
# How it was run: as §1
# [18] = biological target: Neu5Ac(a2-3)GalNAc(b1-4)GlcNAc
# How it was run: as §1
# [19] = biological target: Neu5Ac(a2-3)[GalNAc(b1-4)]Gal(b1-4)Glc
# How it was run: as §1
# [20] = biological target: Neu5Ac(a2-3)[GalNAc(b1-4)]Gal(b1-4)GlcNAc
# How it was run: as §1
# [21] = biological target: Neu5Ac(a2-3)[Neu5Ac(a2-6)]GalNAc
# How it was run: as §1
# [22] = biological target: Neu5Ac(a2-6)Gal(b1-4)GlcNAc
# How it was run: as §1
# [23] = biological target: Neu5Ac(a2-6)Gal(b1-4)GlcNAc(b1-2)Man(a1-3)[Neu5Ac(a2-6)Gal(b1-4)GlcNAc(b1-2)Man(a1-6)]Man(b1-4)GlcNAc(b1-4)GlcNAc
# How it was run: as §1
# [24] = biological target: Neu5Ac(a2-6)Gal(b1-4)GlcNAc(b1-3)Gal(b1-4)GlcNAc
# How it was run: as §1
# [25] = biological target: Neu5Ac(a2-6)Gal(b1-4)GlcNAc(b1-3)Gal(b1-4)[Fuc(a1-3)]GlcNAc(b1-3)Gal(b1-4)[Fuc(a1-3)]GlcNAc
# How it was run: as §1
# [26] = biological target: Neu5Ac(a2-6)Gal(b1-4)GlcNAc6S
# How it was run: as §1
# [27] = biological target: Neu5Ac(a2-6)GalNAc
# How it was run: as §1
# [28] = biological target: Neu5Ac(a2-6)GalNAc(b1-4)GlcNAc
# How it was run: as §1
# [29] = biological target: Neu5Ac(a2-8)Neu5Ac
# How it was run: as §1
# [30] = biological target: Neu5Ac(a2-8)Neu5Ac(a2-3)Gal(b1-4)Glc
# How it was run: as §1
# [31] = biological target: Neu5Ac(a2-8)Neu5Ac(a2-3)[GalNAc(b1-4)]Gal(b1-4)Glc
# How it was run: as §1
# [32] = biological target: Neu5Ac(a2-8)Neu5Ac(a2-8)Neu5Ac
# How it was run: as §1
# [33] = biological target: Neu5Ac(a2-8)Neu5Ac(a2-8)Neu5Ac(a2-3)Gal(b1-4)Glc
# How it was run: as §1
# [34] = biological target: Neu5Ac(a2-8)Neu5Ac(a2-8)Neu5Ac(a2-3)[GalNAc(b1-4)]Gal(b1-4)Glc
# How it was run: as §1
# [35] = biological target: Neu5Ac(a2-8)Neu5Ac(a2-8)Neu5Ac(a2-8)Neu5Ac(a2-3)[GalNAc(b1-4)]Gal(b1-4)Glc
# How it was run: as §1
# [36] = biological target: Neu5Ac9Ac(a2-6)Gal(b1-4)GlcNAc
# How it was run: as §1
# [37] = biological target: Neu5Gc(a2-3)Gal(b1-3)GlcNAc
# How it was run: as §1
# [38] = biological target: Neu5Gc(a2-3)Gal(b1-3)[Fuc(a1-4)]GlcNAc
# How it was run: as §1
# [39] = biological target: Neu5Gc(a2-3)Gal(b1-4)Glc
# How it was run: as §1
# [40] = biological target: Neu5Gc(a2-3)Gal(b1-4)GlcNAc
# How it was run: as §1
# [41] = biological target: Neu5Gc(a2-3)Gal(b1-4)[Fuc(a1-4)]GlcNAc
# How it was run: as §1
# [42] = biological target: Neu5Gc(a2-6)Gal(b1-4)GlcNAc
# How it was run: as §1
# [43] = biological target: Neu5Gc(a2-6)GalNAc
# How it was run: as §1
binder,measurement,setting,value
B1,glycan array binding signal (z-score),[1],-0.494
same,glycan array binding signal (z-score),[2],-0.511
same,glycan array binding signal (z-score),[3],-0.478
same,glycan array binding signal (z-score),[4],-0.278
same,glycan array binding signal (z-score),[5],-0.49
same,glycan array binding signal (z-score),[6],-0.576
same,glycan array binding signal (z-score),[7],-0.358
same,glycan array binding signal (z-score),[8],-0.301
same,glycan array binding signal (z-score),[9],0.103
same,glycan array binding signal (z-score),[10],-0.473
same,glycan array binding signal (z-score),[11],-0.522
same,glycan array binding signal (z-score),[12],-0.355
same,glycan array binding signal (z-score),[13],-0.292
same,glycan array binding signal (z-score),[14],-0.112
same,glycan array binding signal (z-score),[15],0.228
same,glycan array binding signal (z-score),[16],-0.423
same,glycan array binding signal (z-score),[17],-0.555
same,glycan array binding signal (z-score),[18],-0.5
same,glycan array binding signal (z-score),[19],-0.245
same,glycan array binding signal (z-score),[20],-0.502
same,glycan array binding signal (z-score),[21],-0.362
same,glycan array binding signal (z-score),[22],-0.514
same,glycan array binding signal (z-score),[23],0.219
same,glycan array binding signal (z-score),[24],-0.508
same,glycan array binding signal (z-score),[25],-0.485
same,glycan array binding signal (z-score),[26],0.175
same,glycan array binding signal (z-score),[27],-0.562
same,glycan array binding signal (z-score),[28],-0.529
same,glycan array binding signal (z-score),[29],-0.291
same,glycan array binding signal (z-score),[30],-0.41
same,glycan array binding signal (z-score),[31],-0.266
same,glycan array binding signal (z-score),[32],-0.213
same,glycan array binding signal (z-score),[33],-0.394
same,glycan array binding signal (z-score),[34],-0.281
same,glycan array binding signal (z-score),[35],-0.316
same,glycan array binding signal (z-score),[36],0.17
same,glycan array binding signal (z-score),[37],-0.432
same,glycan array binding signal (z-score),[38],-0.463
same,glycan array binding signal (z-score),[39],-0.37
same,glycan array binding signal (z-score),[40],-0.568
same,glycan array binding signal (z-score),[41],-0.439
same,glycan array binding signal (z-score),[42],-0.334
same,glycan array binding signal (z-score),[43],-0.533
